This is an account of results in PMC10668032.

The other results are listed elsewhere or left out. At the low end of the ranking the order means little.

This assay has as its target SIX1-Q177R homeodomain (UniProt Q15475). The assay is described as follows: universal protein binding microarray. The conditions noted are these: Universal all-10-mer PBM (8x60K, AMADID 030236), 300 nM GST-tagged protein, Alexa Fluor 488 anti-GST; buffer, salt, pH and temperature not stated; high values mean tight binding; most listed sequences are background and not binding sites; double strand, one strand shown.
With AGCCCGCT, the binding signal was -0.175 E-score.

Turning to GGCTTCTA, the binding signal is -0.0766 E-score.

Consider GATATATA, for which the binding signal was -0.126 E-score.

For the sequence GTATTGGA, the binding signal was -0.169 E-score.

In the case of ACGCGGTA, the binding signal was determined as 0.0643 E-score.

For CGGCAAGC, the binding signal was -0.0169 E-score.

With TGACCCAA, the binding signal turned out to be 0.0802 E-score.

For the sequence ACTAATCG, the binding signal was 0.119 E-score.

On to CTGTTTCC, for which the binding signal is -0.155 E-score.

Consider AGCGCGTA, for which the binding signal is -0.222 E-score.

CCGGTAAA: the binding signal turned out to be 0.104 E-score.

As for CGATAAAG, the binding signal is -0.171 E-score.

Turning to CCCTGGAC, the binding signal came out at 0.0864 E-score.

In the case of CGATCAGC, the binding signal was -0.257 E-score.

As for CAAGCAAA, the binding signal is -0.191 E-score.

AATACGCT: the binding signal was -0.115 E-score.

Turning to CGGCCTAG, the binding signal was -0.24 E-score.

As for CGAGTCAA, the binding signal stood at 0.11 E-score.

With CCGGGAGA, the binding signal was -0.00114 E-score.

As for GGTCCGCA, the binding signal was -0.00696 E-score.

In the case of AACAGTGA, the binding signal was -0.0313 E-score.

As to CAGTTCGA, the binding signal was 0.106 E-score.

ATCAGCTG: the binding signal was -0.079 E-score.

Take ACCTAGCT: the binding signal was found to be 0.111 E-score.

With CACAGGTA, the binding signal came to 0.104 E-score.

For the sequence CGCCAACC, the binding signal was -0.00498 E-score.

Consider GACTGGCC, for which the binding signal is -0.349 E-score.

Consider AATGGCAC, for which the binding signal is -0.0128 E-score.

In the case of TATGTGAA, the binding signal was -0.145 E-score.

ACAAGGTA: the binding signal is -0.0204 E-score.

For the sequence AATCCAAG, the binding signal is -0.0903 E-score.

Turning to CGGACAAG, the binding signal was -0.073 E-score.

Take CCTGAAAG: the binding signal is -0.0646 E-score.

With GCTCGTCC, the binding signal is -0.0703 E-score.

On to CCTTTGAC, for which the binding signal came out at 0.00515 E-score.

Regarding AGGGAGGC, the binding signal was -0.155 E-score.

In the case of GAGGCACC, the binding signal is -0.0594 E-score.

In the case of CTTGCCCC, the binding signal is -0.0502 E-score.

As for ACTCCTAC, the binding signal was determined as 0.112 E-score.

Turning to AACTGCTC, the binding signal was -0.0213 E-score.

In the case of ACGGAATA, the binding signal was found to be 0.046 E-score.

Regarding GAAAGCCA, the binding signal was -0.27 E-score.

In the case of CCGACACC, the binding signal worked out at 0.488 E-score.

With CCGCGATC, the binding signal was found to be 0.081 E-score.

Take TAAGCCGA: the binding signal is -0.243 E-score.

In the case of CAGGGCTA, the binding signal came to 0.00664 E-score.

With CGGGTACC, the binding signal amounted to 0.16 E-score.

In the case of ACAATCAG, the binding signal was -0.0314 E-score.

CGAGTATC: the binding signal was determined as 0.158 E-score.

As to CTATCGTC, the binding signal is -0.0769 E-score.

On to ATTATATA, for which the binding signal is -0.0523 E-score.

Regarding ACGCAACG, the binding signal turned out to be 0.0798 E-score.

In the case of TGCTTTAA, the binding signal is -0.0642 E-score.

On to GGCCTGAC, for which the binding signal is -0.0129 E-score.

On to ACACGCTG, for which the binding signal came out at 0.389 E-score.

Turning to CTATACAA, the binding signal was -0.0949 E-score.

Turning to AATCGCCG, the binding signal turned out to be 0.0517 E-score.

Consider GACCAATA, for which the binding signal was 0.00786 E-score.

As to TTGTTAAA, the binding signal is -0.148 E-score.

Turning to ACCGTAAC, the binding signal was -0.036 E-score.

With ACGGATGA, the binding signal was 0.0644 E-score.

For AACGCTGA, the binding signal was -0.197 E-score.

As for AAAACAAC, the binding signal was -0.179 E-score.

In the case of AATAGTTA, the binding signal is -0.239 E-score.

In the case of AATATGGA, the binding signal came to 0.0496 E-score.

For the sequence ATGTTCAG, the binding signal was -0.0871 E-score.

Consider ACTCCACA, for which the binding signal came to 0.206 E-score.

In the case of ATCTAGTA, the binding signal was -0.176 E-score.

With CAGTTCGG, the binding signal was -0.0965 E-score.

Regarding CCCGTGAA, the binding signal is -0.136 E-score.

For the sequence AAGGATAA, the binding signal amounted to 0.0209 E-score.

Consider CGATGCCG, for which the binding signal is -0.164 E-score.

As to CCACGTAG, the binding signal was -0.255 E-score.

Take ACCTTCCG: the binding signal amounted to 0.0859 E-score.

As to ATCAAGTC, the binding signal is -0.1 E-score.

Take CTAGTCAC: the binding signal was 0.19 E-score.

In the case of AACTCGCC, the binding signal was found to be 0.0208 E-score.

CGTTATTC: the binding signal is -0.117 E-score.

Regarding ATCTACGA, the binding signal was -0.0518 E-score.

CCAATACG: the binding signal was -0.0027 E-score.

As for CTCGACCC, the binding signal was 0.182 E-score.

As to AGATCCTC, the binding signal was -0.121 E-score.

For the sequence TATAGTGA, the binding signal was determined as 0.0497 E-score.

For CGCCAACG, the binding signal is -0.176 E-score.

For the sequence TCGATGAA, the binding signal is -0.0239 E-score.

Consider CGTTCAGC, for which the binding signal is -0.0699 E-score.

As to CGATCTTA, the binding signal was -0.0073 E-score.

For ACGTAAAA, the binding signal is -0.213 E-score.

In the case of CTGGCAAG, the binding signal is -0.262 E-score.

For the sequence AGATCATC, the binding signal came to 0.0817 E-score.

As to AACGGCAC, the binding signal stood at 0.0138 E-score.

On to AGCCGCTC, for which the binding signal was -0.028 E-score.

In the case of CGCTCGAA, the binding signal was -0.208 E-score.

As to GATCCGAA, the binding signal turned out to be 0.00303 E-score.

Regarding AAGCACCC, the binding signal was 0.244 E-score.

In the case of AGAGTTTA, the binding signal was -0.0605 E-score.

As for CTAATCGA, the binding signal was -0.144 E-score.

As to AACTACCC, the binding signal came to 0.151 E-score.

Take TCAATACA: the binding signal came to 0.212 E-score.

For ACAGAACT, the binding signal was -0.168 E-score.

As for GCCGAGTA, the binding signal was -0.0605 E-score.

Turning to ATGCTACC, the binding signal was found to be 0.0295 E-score.

As for CGTTGCCA, the binding signal was -0.0156 E-score.

As to CTTCCCCA, the binding signal is -0.0323 E-score.

For the sequence AAGGTTCG, the binding signal was -0.0568 E-score.

For AAGTCCGT, the binding signal was -0.104 E-score.

With AGAGGATC, the binding signal was determined as 0.0631 E-score.

As to ACTCTATG, the binding signal worked out at 0.0352 E-score.

Consider GGCGGGGA, for which the binding signal was determined as 0.0148 E-score.

For the sequence GATGTTAA, the binding signal was -0.0502 E-score.

As for CGAGGCCA, the binding signal was -0.109 E-score.

For the sequence CAAAAGAG, the binding signal was -0.0613 E-score.

Regarding CGTATTAC, the binding signal worked out at 0.0844 E-score.

As for GTGCGGTA, the binding signal came out at 0.119 E-score.

For AAGTACAT, the binding signal was -0.0131 E-score.

Consider GAAACAAA, for which the binding signal is -0.312 E-score.

With TAATCCTA, the binding signal was -0.075 E-score.

For TACGTAGA, the binding signal was -0.184 E-score.

Consider AGGAACAG, for which the binding signal was -0.0352 E-score.

Regarding GACCTCTA, the binding signal was -0.313 E-score.

For AACGGTCC, the binding signal is -0.34 E-score.

CGACGGCA: the binding signal was found to be 0.127 E-score.

For GGGCTTCA, the binding signal is -0.176 E-score.

Turning to GGTAGAAA, the binding signal is -0.067 E-score.

For the sequence CAGCACCA, the binding signal turned out to be 0.182 E-score.

As for AGGAATAT, the binding signal was -0.185 E-score.

In the case of AAACATAG, the binding signal was -0.249 E-score.

Regarding TTTTAAAA, the binding signal was -0.113 E-score.

Regarding CACATTCA, the binding signal was -0.228 E-score.

For the sequence ACGTTTCG, the binding signal stood at 0.0722 E-score.

Consider TAACCTAA, for which the binding signal was -0.0395 E-score.

Turning to ATTCGCGG, the binding signal was -0.0116 E-score.

As to ATGAACGA, the binding signal was -0.143 E-score.

As for TCCCGACA, the binding signal is 0.155 E-score.

As to CTACGTCA, the binding signal is 0.0203 E-score.

Take TCCGAGGA: the binding signal came to 0.0582 E-score.

In the case of CCATCTAC, the binding signal was -0.0891 E-score.

For GAGCGTAA, the binding signal is -0.157 E-score.

Turning to ACTAGGGA, the binding signal was 0.18 E-score.

In the case of ACGTTTAG, the binding signal amounted to 0.0741 E-score.

AACCGGCC: the binding signal is -0.203 E-score.

As for AAACCCCT, the binding signal was 0.178 E-score.

Consider AGTCCGTC, for which the binding signal is -0.087 E-score.

With CTCAGTGC, the binding signal amounted to 0.0617 E-score.

As to CTGAGCCC, the binding signal is -0.0399 E-score.

For ATAAACGA, the binding signal was -0.13 E-score.

Take AAGGTTAT: the binding signal was -0.124 E-score.

As to ATGAACTC, the binding signal turned out to be 0.0152 E-score.

For ATGCCACA, the binding signal is 0.0994 E-score.

ATCAGGAT: the binding signal is -0.0625 E-score.

Take CAAACTAG: the binding signal amounted to 0.152 E-score.

Take CAGGTTTC: the binding signal was -0.0409 E-score.

In the case of CACCTACG, the binding signal was 0.232 E-score.

As to CACATGAG, the binding signal was -0.0336 E-score.

On to ACCGCGTA, for which the binding signal is 0.15 E-score.

On to CATTATTA, for which the binding signal was -0.152 E-score.

As to GAAAGGTC, the binding signal was -0.0115 E-score.

For the sequence CTGGGGCC, the binding signal is 0.0347 E-score.

Regarding GGAACACA, the binding signal stood at 0.189 E-score.

Consider AAGCAAAA, for which the binding signal was -0.288 E-score.

Turning to AAATTGGC, the binding signal was -0.0777 E-score.

For CATCTGTA, the binding signal is -0.209 E-score.

For the sequence CGGGGACC, the binding signal was -0.0914 E-score.

With ATATCGCA, the binding signal was -0.0787 E-score.

Turning to GGTCTTGA, the binding signal was 0.0751 E-score.

Consider GATACAAA, for which the binding signal was -0.0291 E-score.

As to ATTCGTGC, the binding signal was -0.163 E-score.

For the sequence CACCGCTA, the binding signal was 0.12 E-score.

Regarding AATCTCTA, the binding signal is -0.232 E-score.

With CCCTATAC, the binding signal came to 0.122 E-score.

On to GACAAATA, for which the binding signal was -0.192 E-score.

For the sequence CTATCTGC, the binding signal is -0.145 E-score.
